Results from patent US11180459B2, “Bacterial efflux pump inhibitors” (RUTGERS, THE STATE UNIVERSITY OF NEW JERSEY, priority 2017, dated 2021).
Counter-ions that a name gives are not always drawn. At least one read-out could not be matched to a standard name with certainty.

Columns and labels:
[1] = system: Pseudomonas aeruginosa ATCC 27853; assay: Standard EPI assay: levofloxacin MIC with EPI; type: cell-based; conditions: levofloxacin as antibiotic, P. aeruginosa ATCC 27853
Method: (§1) MIC assays were conducted in accordance with Clinical and Laboratory Standards Institute (CLSI) guidelines for broth microdilution.
(§2) The EPI assay for the purposes of these studies represents a MIC assay in which the MIC of the antibiotic against the bacteria is tested in the presence of an experimental efflux pump inhibitor (EPI). The highest concentration of the EPI present in the assay typically is ½ of the intrinsic MIC of the compound. If the intrinsic MIC of the EPI is greater than 100 μg/mL, the EPI assay was tested with 50 μg/mL. Using serial dilutions of the EPI, its enhancement of antibiotic activity was then evaluated. The relative EPI activity was decided by comparing the MIC of the antibiotic in the presence of the EPI compound with the intrinsic MIC of the antibiotic alone. For the evaluation of the efficacy of an EPI against bacteria that were pre-exposed to an antibiotic, the inoculum of bacteria that used was developed from a bacterial culture isolated as a single colony following exposure at ½ the MIIC of the antibiotic (so as to induce efflux pump expression), was to be used in combination with the EPI.
(§3) In our standard EPI assay, the MIC of the test antibiotic is determined in the absence and presence of sub-inhibitory concentrations of the EPI. Initially, the sub-inhibitory concentration used was ½×MIC of the EPI. […] The MIC of levofloxacin against P. aeruginosa ATCC 27853 in the absence of EPI is 1 μg/mL. […] Similar methodology was employed to examine the synergy with Escherichia coli ATCC 25922 in the presence of varied concentrations of these EPIs using clarithromycin as the antibiotic.

[2] = system: Escherichia coli ATCC 25922; assay: Standard EPI assay: clarithromycin MIC with EPI; type: cell-based; conditions: clarithromycin as antibiotic; E. coli ATCC 25922; EPI at 12.5
Method: as §1, §2, §3

Structure (SMILES) | Enhanced Activity in E. coli (fold enhancement of antibiotic activity / EPI concentration) [2] [×/12.5] | Enhanced Activity in P. aeruginosa (fold enhancement of antibiotic activity / EPI concentration) ([1]; EPI at 50) [×/50] | other results
NCCC[C@@H](N)CNC(=O)c1nc2cc(-c3ccc(F)cc3)ccc2[nH]1 [Example 18, (R)—N-(2,5-diaminopentyl)-5-(4-fluorophenyl)-1H-benzo[d]imidazole-2-carboxamide Dihydrochloride] | – | – | Enhanced Activity in P. aeruginosa (fold enhancement of antibiotic activity / EPI concentration) ([1]; EPI at 6.25): 2×/6.25
NCCC[C@H](N)CNC(=O)c1nc2cc(-c3ccc(F)cc3)cc(-c3ccc(F)cc3)c2[nH]1 [Example 2, (S)—N-(2,5-diaminopentyl)-5,7-bis(4-fluorophenyl)-1H-benzo[d]imidazole-2-carboxamide Dihydrochloride] | 8 | – | –
CC(C)C(N)CC[C@H](N)CNC(=O)c1nc2cc(-c3ccc(F)cc3)ccc2[nH]1 (stereo partly drawn) [Example 16, N-((2S)-2,5-diamino-6-methylheptyl)-5-(4-fluorophenyl)-1H-benzo[d]imidazole-2-carboxamide Dihydrochloride] | – | – | Enhanced Activity in P. aeruginosa (fold enhancement of antibiotic activity / EPI concentration) ([1]; EPI at 6.25): 2×/6.25
NCCC[C@H](N)CNC(=O)c1nc2cc(-c3ccc(C(F)(F)F)cc3)ccc2[nH]1 [Example 6, (S)—N-(2,5-diaminopentyl)-5-(4-(trifluoromethyl)phenyl)-1H-benzo[d]imidazole-2-carboxamide Dihydrochloride] | 64 | – | Enhanced Activity in P. aeruginosa (fold enhancement of antibiotic activity / EPI concentration) ([1]; EPI at 3.13): 1×/3.13
Cn1c(C(=O)NC[C@@H](N)CCCN)nc2cc(-c3ccc(F)cc3)ccc21 [Example 5, (S)—N-(2,5-diaminopentyl)-5-(4-fluorophenyl)-1-methyl-1H-benzo[d]imidazole-2-carboxamide Dihydrochloride] | – | 128 | –
NCCC[C@H](N)CNC(=O)c1nc2cc(-c3ccc(F)cc3)ccc2[nH]1 [Example 17, (S)—N-(2,5-diaminopentyl)-5-(4-fluorophenyl)-1H-benzo[d]imidazole-2-carboxamide Dihydrochloride] | – | 4 | –
N#Cc1cccc(-c2ccc3[nH]c(C(=O)NC[C@@H](N)CCCN)nc3c2)c1 [Example 7, (S)-5-(3-cyanophenyl)-N-(2,5-diaminopentyl)-1H-benzo[d]imidazole-2-carboxamide Dihydrochloride] | 2 | – | –
CC(C)(N)C1CN[C@H](CNC(=O)c2nc3ccc(-c4ccc(F)cc4)cc3[nH]2)C1 (stereo partly drawn) [Example 11, N-(((2S)-4-(2-aminopropan-2-yl)pyrrolidin-2-yl)methyl)-6-(4-fluorophenyl)-1H-benzo[d]imidazole-2-carboxamide Dihydrochloride] | 2 | – | –
NCCC[C@H](N)CNC(=O)c1nc2cc(-c3ccc(F)cc3)c(-c3ccc(F)cc3)cc2[nH]1 [Example 1, (S)—N-(2,5-diaminopentyl)-5,6-bis(4-fluorophenyl)-1H-benzo[d]imidazole-2-carboxamide Dihydrochloride] | – | – | Enhanced Activity in P. aeruginosa (fold enhancement of antibiotic activity / EPI concentration) ([1]; EPI at 3.13): 1×/3.13
NCCC[C@H](N)CNC(=O)Cc1nc2ccc(-c3ccc(F)cc3)cc2[nH]1 [Example 10, (S)—N-(2,5-diaminopentyl)-2-(6-(4-fluorophenyl)-1H-benzo[d]imidazol-2-yl)acetamide Dihydrochloride] | – | 1 | –
